Laboratory results published in PubChem BioAssay AID504706 (National Center for Advancing Translational Sciences (NCATS), 2011).
Out of some 320,000 compounds screened, about 200 (0.062%) were called active. This list was built around the results that the source calls inconclusive (neither active nor inactive); the mix of calls is not that of the screen. Calls come from the whole dose curve; as a rule, active = well fitted activation curve with a large enough effect; inconclusive = small, poorly fitted or top-dose-only effect; inactive = no such curve, though single readings can be large or run the other way. Potencies of inconclusive entries are left out as doubtful fits.

Experiment: qHTS assay for re-activators of p53 using a Luc reporter; note: nearly all actives have a fitted effect of over 45% in size; for activity change, positive = activation: % of control where 0% means no effect
Settings: H1299 p53-A138V BP100-luciferase reporter, luminescence, 24 h; series mostly up to 92.2 µM; activity change, positive = activation: at the top concentration
Procedure, shortened: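 p53-null H1299 cells stably carrying temperature-sensitive p53-A138V and a BP100-luciferase reporter were pinned with compounds (4-point, 1:5 series) and held 24 hrs at 37 deg C. Luminescence was read 10 min after detection reagent.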
Potency is the fitted concentration of half-maximal effect; tags give direction and shape of the fitted curve.

SMILES	activity change, positive = activation	Potency
CCN1CCN(c2ccc(S(=O)(=O)N3CCCCC3)cc2NC(=O)Cc2ccccc2F)CC1	inactive: -9.29%	
C[C@@H](C(=O)Nc1ccc2c(c1)OCCO2)n1c(=O)[nH]c2ccccc2c1=O		inconclusive [activator, partial curve, poor fit]
COc1cccc(-c2cc(C(=O)N3CCCCC3C)no2)c1 (stereo not drawn)		inconclusive [activator, full curve, poor fit]
CCn1c(=O)c2cc(C(=O)NCCCOC)sc2c2ccccc21	inactive: -5.48%	
CC(C)c1ccc(NC(=O)c2ccccc2NC(=O)C2CCCCC2C(=O)O)cc1 (stereo not drawn)		inconclusive [activator, full curve, poor fit]
CSC1=NSC2=NC(=O)/C(=C\c3cccs3)C(=N)N12		inconclusive [activator, partial curve, poor fit]
CCCCc1nnc(NC(=O)CCS(=O)(=O)c2ccc(Cl)cc2)s1		inconclusive [activator, partial curve, poor fit]
O=c1[nH]c(CSc2ccccn2)nc2ccccc12	inactive: 19.1%	
O=[N+]([O-])c1ccc(N/N=C/c2ccc[nH]2)cc1		inconclusive [activator, partial curve, poor fit]
COc1cc2c(C(=O)N(C)c3cc(Cl)ccc3OC)cn(C)c(=O)c2cc1OC		inconclusive [activator, single point]
O=C(c1cc(-c2ccc(F)cc2)on1)N1CCOCC1		inconclusive [activator, full curve, poor fit]
Cc1ccc(-n2c(C)cc(C(=O)CSc3nncs3)c2C)cc1		inconclusive [activator, full curve, poor fit]
COc1ccc(N2C(=O)c3ccccc3NC2c2ccc(OC)c(COc3ccccn3)c2)cc1 (stereo not drawn)		inconclusive [activator, full curve, poor fit]
COc1ccc(CN(CCCN2CCOCC2)S(=O)(=O)N(C)C)cc1OC	inactive: -4.15%	
CCN(Cc1ccccc1)c1ccc(/C=N/N2CCOCC2)cc1		inconclusive [activator, partial curve, poor fit]
O=C(O)c1ccc(N=Nc2c(-c3ccccc3)[nH]oc2=O)cc1		inconclusive [activator, single point]
c1coc(CNc2nc(-c3cccs3)cs2)c1		inconclusive [activator, single point]
CCN1CCN(c2ccc(NC(=O)c3ccc(OC)c(S(=O)(=O)N4CCCC4)c3)cc2)CC1		inconclusive [activator, single point]
CC(C)(C)c1ccc(C(=O)Nc2ccccc2Cl)cc1		inconclusive [activator, full curve, poor fit]
Cc1ccc(C(=O)NC(=S)Nc2cccc3c(C)cc(C)nc23)cc1		inconclusive [activator, single point]
CC(=O)Nc1nc(C)cs1	inactive: 0.147%	
O=C(Nc1ccccc1)Nc1ccc2snnc2c1		inconclusive [activator, partial curve, poor fit]
CCOC(=O)c1ccc(N/C=C2\CCCCC2=O)cc1		inconclusive [activator, full curve, poor fit]
Cc1ccc(C)c(OCC(=O)Nc2cc(C)on2)c1		inconclusive [activator, full curve, poor fit]
CCN(c1ccccc1)S(=O)(=O)c1ccc(NC(=S)NC(=O)c2cccs2)cc1	inactive: 11.1%	

SMILES	activity change, positive = activation	Potency
O=C(c1ccco1)N1N=C(c2cccs2)CC1c1cc([N+](=O)[O-])ccc1O (stereo not drawn)	inactive: 11.4%	
COc1ccc(-n2c(SCC(N)=O)nnc2-c2cccnc2)cc1		inconclusive [activator, single point]
Cc1ccc(-c2cc(C(=O)N3CCOCC3)no2)cc1	inactive: 4.51%	
COc1cc(-c2nc3cnccn3c2Nc2ccc(C)cc2)ccc1O	inactive: 0.234%	
Cc1cc2c(cc1S(=O)(=O)N1CCN(c3cccc(C)c3C)CC1)OCC(=O)N2	inactive: 6.51%	
c1ccc2c(c1)OC(CCCN1CCCCC1)c1ccccc1S2 (stereo not drawn)	inactive: -2.66%	
O=C1N=c2ccccc2=C1c1sc(NS(=O)(=O)Cc2ccccc2)nc1O	inactive: 5.12%	
Cn1cnc2cc(OC(=O)c3ccccc3)ccc21	inactive: 4.37%	
CCOc1ccccc1CN1CCNC(=O)C1CC(=O)NCCCn1cccn1 (stereo not drawn)	inactive: 2.92%	
CCc1ccc(-c2cc3c(=O)n(CC(=O)NCCCN4CCN(C)CC4)ncn3n2)cc1		inconclusive [activator, partial curve, poor fit]
O=C(Nc1ccc2c(c1)OCO2)c1ccc(Br)s1		inconclusive [activator, partial curve, poor fit]
C[C@H](NC(=O)c1nc[nH]c1C(=O)N[C@@H](CCCCNC(=O)OC(C)(C)C)C(=O)OC(C)(C)C)C(=O)OC(C)(C)C	inactive: -4.44%	
CCC(CCC(=O)Nc1cccc(C(=O)O)c1)C(=O)O (stereo not drawn)		inconclusive [activator, partial curve, poor fit]
Cc1ccccc1C(=O)NC(=S)Nc1ccc(N2CCOCC2)cc1	inactive: 1.41%	
CCOc1ccc(/C(O)=C2/C(=O)C(=O)N(CCN(CC)CC)C2c2ccco2)cc1 (stereo not drawn)		inconclusive [activator, single point]
O=C(Nc1ccon1)c1ccc(OC2CCCC2)cc1		inconclusive [activator, partial curve, poor fit]
O=C(/C=C/c1ccc(Cl)c([N+](=O)[O-])c1)Nc1cccc(NC(=O)c2ccco2)c1		inconclusive [activator, full curve, poor fit]
COc1ccc(-c2nnc(-c3cc4c(ccc5ccccc54)oc3=O)o2)cc1		inconclusive [activator, single point]
O=C(c1cc2cc(Cl)ccc2o1)N1CCCC1	inactive: 20.4%	
O=C1c2ccccc2NC2CCCCCN12 (stereo not drawn)	inactive: 12.2%	
COC(=O)c1cc(C(=O)N2CCN(c3ccccc3OC)CC2)cc([N+](=O)[O-])c1	inactive: 1.46%	
CC1(C)CC(=O)c2sc(NC(=O)c3ccccc3)nc2C1	inactive: -8.79%	
Cc1cccnc1NC(=S)NC(=O)/C=C/c1ccco1		inconclusive [activator, partial curve, poor fit]
Cc1ccc(NC(=S)NC(=O)C2CCCC2)cc1C		inconclusive [activator, partial curve, poor fit]
Fc1ccccc1CSc1nc2ncccc2[nH]1		inconclusive [activator, single point]

SMILES	activity change, positive = activation	Potency
COc1cc(C(C)=O)ccc1Oc1ncnc2c1cnn2-c1ccc(C)c(C)c1		inconclusive [activator, single point]
Cc1ccc(NC(=O)c2cccnc2)cc1S(=O)(=O)N(C)C	inactive: -1.17%	
c1csc(-c2nc3ccccc3[nH]2)c1		inconclusive [activator, full curve, poor fit]
CC(=O)NC(CC(=O)N(C)Cc1c(F)cccc1Cl)c1ccccc1 (stereo not drawn)		inconclusive [activator, single point]
O=S1(=O)N=C(N/N=C/c2ccccn2)c2ccccc21		inconclusive [activator, single point]
COc1ccc(Cn2c(SCc3ccccc3C)nc3cc(OC)c(OC)cc3c2=N)cc1	inactive: -26.3%	
O=C(/C=C/c1ccco1)Nc1ccc2c(c1)OCCO2		inconclusive [activator, full curve, poor fit]
C=CCOc1cccc(C2/C(=C(/O)c3ccc4c(c3)CC(C)O4)C(=O)C(=O)N2CCN2CCOCC2)c1 (stereo not drawn)		inconclusive [activator, single point]
COc1cccc(NC(=O)CSc2nc3c([nH]c4ccccc43)c(=O)n2C)c1	inactive: 0.53%	
O=C(O)c1ccccc1C(=O)Nc1nc(-c2ccc3ccccc3c2)cs1		inconclusive [activator, single point]
COCC1CCN(C(=O)CCc2nnc(C3(c4ccc(Cl)cc4)CCC3)o2)C1 (stereo not drawn)		inconclusive [activator, single point]
COc1ccc(CNS(=O)(=O)c2ccc3c(c2)CC(C)N3C(=O)C2CC2)cc1 (stereo not drawn)	inactive: 1.6%	
COc1cc(C(=O)Nc2nnc(CC(=O)NCc3ccccc3)s2)cc(OC)c1OC	inactive: 8.1%	
c1ccc(NCc2nc(-c3ccccc3)no2)cc1		inconclusive [activator, partial curve, poor fit]
COc1ccccc1P(=O)(Cc1ccccc1[N+](=O)[O-])c1ccccc1 (stereo not drawn)	inactive: -0.459%	
Cc1ccc(-c2cc(C(=O)N3CCCCC3)c3ccccc3n2)cc1C		inconclusive [activator, single point]
Cc1ccc(-n2ncc3c(=O)n(CC(=O)N4CCCCCC4)cnc32)cc1	inactive: 6.03%	
Cc1ccccc1NC(=O)c1cccc2nccnc12		inconclusive [activator, partial curve, poor fit]
CCOc1ccc(CCNC(=O)COC(=O)c2nccnc2N)cc1OCC	inactive: 1.26%	
Cc1ccc(CNC(=O)c2cccc3c2C(=O)c2ccc(N4CCCCC4)cc2S3(=O)=O)cc1	inactive: 5.05%	
Cc1ccsc1/C=N/NC(=O)c1ccc2c(c1)OCCO2	inactive: -0.98%	
COc1cc(C2C(C#N)=C(N)N(N(C)C)C3=C2C(=O)CC(C)(C)C3)ccc1O (stereo not drawn)	inactive: -4.97%	
Nc1ccc2c(c1Cl)C(=O)c1ccc(N)c(Cl)c1C2=O		inconclusive [activator, partial curve, poor fit]
